# Laboratory results taken from article PMC4336329 (PLoS ONE, 2015).
# In all, about 310,000 compounds went through this assay and about 2,200 (0.71%) showed an effect of 50% or more. The effect is printed as a negative number. The list shows a part of the results.
# Target: human ether-à-go-go-related gene (hERG) potassium channel (human, UniProt Q12809)
# Test: primary screen, population patch clamp on CHO cells stably expressing hERG
# Sequence of human ether-à-go-go-related gene (hERG) potassium channel (Q12809 whole entry, looked up): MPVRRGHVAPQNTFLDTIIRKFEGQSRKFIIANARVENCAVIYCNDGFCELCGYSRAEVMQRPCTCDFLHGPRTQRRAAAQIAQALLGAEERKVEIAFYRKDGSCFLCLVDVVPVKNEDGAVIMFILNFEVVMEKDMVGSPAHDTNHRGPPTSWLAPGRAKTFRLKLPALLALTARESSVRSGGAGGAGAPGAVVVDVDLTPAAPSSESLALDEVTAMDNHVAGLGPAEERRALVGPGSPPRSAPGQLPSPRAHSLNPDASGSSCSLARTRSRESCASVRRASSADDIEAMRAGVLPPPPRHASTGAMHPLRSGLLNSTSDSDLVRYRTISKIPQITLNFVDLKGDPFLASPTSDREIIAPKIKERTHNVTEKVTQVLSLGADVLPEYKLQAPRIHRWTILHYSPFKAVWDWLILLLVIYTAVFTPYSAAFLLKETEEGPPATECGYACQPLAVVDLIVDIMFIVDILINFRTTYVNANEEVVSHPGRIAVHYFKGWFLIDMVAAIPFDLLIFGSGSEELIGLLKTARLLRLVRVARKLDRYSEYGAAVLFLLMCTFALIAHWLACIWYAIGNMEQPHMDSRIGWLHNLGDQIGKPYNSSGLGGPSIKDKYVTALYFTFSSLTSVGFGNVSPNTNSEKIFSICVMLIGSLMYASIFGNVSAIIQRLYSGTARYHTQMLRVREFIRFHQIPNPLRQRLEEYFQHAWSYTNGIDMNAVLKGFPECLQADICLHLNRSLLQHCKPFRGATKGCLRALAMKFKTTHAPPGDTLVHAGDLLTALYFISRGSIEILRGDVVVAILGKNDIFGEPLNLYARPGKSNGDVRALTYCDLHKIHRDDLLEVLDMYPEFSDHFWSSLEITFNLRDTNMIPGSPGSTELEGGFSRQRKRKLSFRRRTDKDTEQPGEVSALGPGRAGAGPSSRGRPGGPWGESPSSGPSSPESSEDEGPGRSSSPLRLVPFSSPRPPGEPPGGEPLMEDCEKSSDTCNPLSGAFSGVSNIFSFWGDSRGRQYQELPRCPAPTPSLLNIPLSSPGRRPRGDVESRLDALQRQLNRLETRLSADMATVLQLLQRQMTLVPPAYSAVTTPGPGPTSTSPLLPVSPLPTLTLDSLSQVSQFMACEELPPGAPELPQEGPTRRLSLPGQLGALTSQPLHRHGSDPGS
row,Compound,"hERG current change (%, negative = inhibition) at 1uM"
1,COCCCNc1nc2c(c(=O)n(Cc3ccc(F)cc3)c(=O)n2C)n1C,4.22%
2,CCCn1c(N)c(N(CCOC)C(=O)c2cc(-c3ccco3)nc3ccccc23)c(=O)[nH]c1=O,13.2%
3,O=C(CNC(=O)c1ccc(Br)o1)NCc1ccccc1Cl,8.45%
4,CCC(=O)N(CC(=O)Nc1sc(C)c(C)c1C(N)=O)Cc1ccc(F)cc1,0.561%
5,COc1cc(/C=C/C(=O)NNc2c(F)c(F)cc(F)c2F)ccc1OC(F)F,8.11%
6,O=C(CCNC(=O)Cn1ccc2ccccc2c1=O)NCCc1ccc(Cl)cc1,17.4%
7,CCCc1ccc(C(C)NC(=O)c2cnccn2)cc1 (stereo not shown),18.5%
8,COc1ccc(NCC(=O)Nc2ccc(Cl)cc2C)c(OC)c1,10.9%
9,Cc1cc(Br)ccc1OCCn1ccnc1.O=C(O)C(=O)O,4.52%
10,CC(=O)c1ccc(OCC(=O)NC(=O)NC2CCCCC2)cc1,3.55%
11,OCCC1CN(Cc2ccc(Oc3ncccn3)cc2)CCN1Cc1ccc(F)c(F)c1 (stereo not shown),8.89%
12,CCOc1ccc(NC(=O)c2sc(N3CCOCC3)nc2-c2ccccc2)cc1,11.5%
13,Cc1ccc(C(=O)N/C(=C\c2cccs2)C(=O)NCCCn2ccnc2)cc1,-66%
14,Cc1ccc(C)c(S(=O)(=O)N2CCCCC2CCNC(=O)C(=O)NCCc2ccco2)c1 (stereo not shown),1.68%
15,O=C(NCc1ccccc1)c1cc(=O)[nH]c2ccccc12,12.8%
16,O=C(NCc1cccnc1)Nc1cccc(C(F)(F)F)c1,3.47%
17,Cc1ccc(C(C(=O)NC2CCCCC2)N(CCC(C)C)C(=O)CNC(=O)c2ccco2)o1 (stereo not shown),-2.69%
18,O=C(CN1C(=O)C2CCCCC2C1=O)Nc1ccccc1N1CCCC1 (stereo not shown),2.67%
19,Cc1[nH]c2ccccc2c1C(=O)CN1CCCCC1CCO (stereo not shown),2.11%
20,CN(C)CCCN=Cc1c(-c2ccccc2)[nH]n(-c2nc3ccccc3s2)c1=O,-58.1%
21,O=C(Nc1ncc(Cl)cc1Cl)c1c(F)cccc1Cl,7.36%
22,CC1CC(C)CN(C(=O)C2CCN(S(=O)(=O)N3CCC4(CC3)OCCO4)CC2)C1 (stereo not shown),12%

row,Compound,"hERG current change (%, negative = inhibition) at 1uM"
1,CC(C)CN1CCC(CN(C)Cc2nc(-c3cnccn3)no2)CC1,14.9%
2,COc1ccccc1N1C(=O)c2cccc3c(Cl)ccc(c23)C1=O,12.6%
3,O=C1C(Cc2ccc3[nH]ccc3c2)NC(=S)N1c1ccccc1 (stereo not shown),9.36%
4,C[C@]12CC(O)C3C(CCC4=CC(=O)CC[C@@]43C)C1CCC2c1csc(-c2ccccc2)n1 (stereo partly shown),8.92%
5,CN1CCN(c2ccc(S(=O)(=O)N3CCCCC3)cc2NC(=O)CSCc2ccccc2)CC1,6.17%
6,CC(=O)Nc1ccc2c(c1)OCCOCCOc1cc(NC(C)=O)ccc1OCCOCCOCCO2,9.04%
7,COc1ccc(OC)c(-c2cc(C(=O)Nc3c(C)nn(Cc4ccc(Cl)cc4)c3C)no2)c1,7.14%
8,O=C(Oc1ccc(/C=N/Nc2ccccc2)cc1)c1ccccc1,11.3%
9,CC(Oc1ccc(F)cc1)C(=O)N(CCC1=CCCCC1)c1c(N)n(Cc2ccccc2)c(=O)[nH]c1=O (stereo not shown),-6.58%
10,COc1cccc(NC(=O)CSC2=NN3CCCC(=O)N=C3S2)c1,11.2%
11,CC(=O)C1=C(O)C(=O)N(c2ccc(O)cc2)C1c1ccc(C)cc1 (stereo not shown),17.4%
12,CCC(C)(C(=O)NC1CCCCC1)N(C(=O)CC1NC(=O)NC1=O)c1c(C)n(C)n(-c2ccccc2)c1=O (stereo not shown),8.58%
13,N#CC1C(C#N)N2CCCN2C1c1ccc(Br)cc1 (stereo not shown),12.7%
14,CC(=O)c1cccc(NC(=O)c2ccc(OC3CSC3)cc2)c1,21.1%
15,CCN(CC)S(=O)(=O)c1ccc(N/N=C/c2ccccc2OCC(=O)O)c([N+](=O)[O-])c1,13.8%
16,CCc1nnc(NC(=O)CCC(=O)NC2CCCCCC2)s1,5.28%
17,CCN(CC(=O)Nc1ccc(Br)cc1)C(=O)c1nc2nc(C)cc(C)n2n1,-8.32%
18,O=S(=O)(c1ccc(Cl)cc1)N1CCCC1c1cccnc1 (stereo not shown),8.51%
19,CC(=O)Nc1ccc(Nc2nc(-c3cc4ccccc4oc3=O)cs2)cc1,2.82%
20,CC1c2[nH]c3ccccc3c2C[C@H]2C(=O)N(CCCN(C)C)CC(=O)N12 (stereo partly shown),13.3%
21,Cc1cccc2cc(CN(Cc3cccs3)C(=S)NCc3ccco3)c(=O)[nH]c12,11.6%
